Data as given in a compilation of properties of binary mixtures (doi:10.1016/j.jct.2008.09.001).
Some of these densities may be calculated back from excess volumes.

Test: xn = mol fraction of the nth substance listed
Conditions: 101.3 kPa

CCCC[n+]1ccccc1.F[B-](F)(F)F + O
mass density [kg/m3]
Conditions	x2 = 0	x2 = 0.11	x2 = 0.263	x2 = 0.391	x2 = 0.414	x2 = 0.549	x2 = 0.637	x2 = 0.724	x2 = 0.856
283.15 K	1224	1219.6	–	1206.2	1204.7	1194.4	–	–	1135.8
288.15 K	1220.4	–	1209.5	–	1201.3	1190.8	–	1168	1132.4
293.15 K	–	1212.7	–	–	1197.6	1187.1	1177.6	1164.2	1128.9
298.15 K	1213.4	1209.2	1202.5	1195.5	1194.1	1183.5	1173.9	–	1125.4
303.15 K	–	–	1199	–	1190.5	–	1170.3	1156.8	1121.9
308.15 K	1206.6	1202.4	1195.5	1188.4	1186.9	1176.3	1166.6	1153.1	1118.3
313.15 K	1203.2	1198.9	–	–	1183.4	–	1162.9	–	1114.7
318.15 K	1199.8	1195.5	1188.5	1181.4	1179.9	1169.2	1159.3	1145.9	1111
323.15 K	1196.4	1192.1	1185.2	1177.9	1176.4	1165.4	1155.6	1142	–
328.15 K	1193	–	1181.6	1174.3	1172.9	1161.8	1152	–	1103.6
333.15 K	1189.6	1185.3	1178.3	1171	–	–	1148.3	1134.4	1099.9
338.15 K	1186.3	1181.9	1174.8	1167.5	1165.9	1154.7	–	1130.9	1096.1
343.15 K	1182.9	–	–	–	1162.4	1151.2	1141.1	1127.1	1092.3
353.15 K	1176	–	–	–	–	–	–	–	–

CCCCCCCC[n+]1ccccc1.F[B-](F)(F)F + O
mass density [kg/m3]
Conditions	x2 = 0	x2 = 0.1	x2 = 0.184	x2 = 0.324	x2 = 0.477	x2 = 0.562	x2 = 0.67	x2 = 0.758	x2 = 0.783
283.15 K	1123.4	1122.2	1120.5	1117.2	1113.1	1110.3	1105.5	1099.1	1096.6
288.15 K	–	–	–	–	–	1106.8	–	–	1093.6
293.15 K	1116.2	–	–	–	1106	1103.1	1098.4	1092.4	1089.9
298.15 K	1112.7	1111.5	1109.9	1106.7	1102.5	1099.6	–	–	1086
303.15 K	1109.2	1107.9	1106.3	1103.2	1099	1096.2	1091.3	1085	1082.4
308.15 K	–	1104.4	1102.9	1099.8	1095.5	1092.4	1087.6	1081.6	–
313.15 K	1102.2	1100.9	1099.4	1096.1	1091.8	–	–	1077.8	1075.6
318.15 K	–	1097.4	1095.9	–	1088.1	1085.1	1080.5	1075	1072.8
323.15 K	1095.4	1094	1092.4	–	1084.7	1081.7	1077.1	1071.3	1069.3
328.15 K	1091.9	–	–	1085.7	1081.3	1078.3	1073.5	–	1065.2
333.15 K	–	–	–	1082.2	1077.6	1074.3	1069.3	–	1061.3
338.15 K	1085.1	1083.5	1082	1078.8	1074.1	1070.8	–	1060	1057.8
343.15 K	1081.6	1080.1	1078.5	–	1061.4	1067.4	–	1056.4	1054.1
348.15 K	–	1076.7	1075.1	1071.9	–	1064.2	1058.8	1052.8	1050.3
353.15 K	1074.9	–	–	–	–	–	–	–	–
